In one experiment the target is T1, GFP-RILP (mouse) (UniProt Q5ND29).
T1 sequence: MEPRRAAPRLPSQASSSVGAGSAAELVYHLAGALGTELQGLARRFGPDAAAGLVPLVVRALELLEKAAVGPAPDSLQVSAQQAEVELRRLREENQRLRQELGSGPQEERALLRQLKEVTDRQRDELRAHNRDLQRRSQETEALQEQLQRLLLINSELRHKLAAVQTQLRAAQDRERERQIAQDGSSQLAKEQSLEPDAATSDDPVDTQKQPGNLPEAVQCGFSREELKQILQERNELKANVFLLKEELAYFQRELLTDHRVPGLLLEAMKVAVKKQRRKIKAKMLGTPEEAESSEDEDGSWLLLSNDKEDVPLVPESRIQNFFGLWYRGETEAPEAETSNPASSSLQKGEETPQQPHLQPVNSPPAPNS
In words: co-IP; RBL cells co-transfected with pEGFP and pEF-T7 constructs; lysate (500 μg, buffer A: 50 mM Hepes pH 7.4, 250 mM NaCl, 1 mM MgCl2, 1% Triton X-100) immunoprecipitated overnight at 4 °C with rabbit polyclonal anti-GFP; blot with anti-T7 (Fig. 1a,b).

Experiment [1] deals with T2, GST-RILP (mouse) (UniProt Q5ND29).
T2 sequence: T1 sequence
As to the kind of experiment: pull-down; GST-RILP, GST-RILP-L1 or GST-RILP-L2 on glutathione agarose beads incubated with RBL cell lysates (GFP fusions; Rab12), 18 h at 4 °C, 0.5 mM GTPγS (Supplementary figure S2); only the target purified.

For a further experiment, the target named is T3, T7-RILP-L1 (mouse) (UniProt Q9JJC6).
T3 sequence: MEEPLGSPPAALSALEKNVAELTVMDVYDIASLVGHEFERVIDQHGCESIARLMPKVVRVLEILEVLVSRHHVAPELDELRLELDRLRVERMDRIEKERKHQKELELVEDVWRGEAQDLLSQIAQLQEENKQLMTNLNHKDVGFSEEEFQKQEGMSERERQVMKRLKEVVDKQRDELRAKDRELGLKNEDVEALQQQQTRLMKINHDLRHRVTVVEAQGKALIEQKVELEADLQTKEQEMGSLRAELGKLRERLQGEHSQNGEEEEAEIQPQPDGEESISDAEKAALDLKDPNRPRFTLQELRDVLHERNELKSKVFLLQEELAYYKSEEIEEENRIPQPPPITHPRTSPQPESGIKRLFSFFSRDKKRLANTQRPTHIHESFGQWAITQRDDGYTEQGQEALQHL
As to the kind of experiment: co-IP; reciprocal: same co-transfected RBL lysates immunoprecipitated overnight at 4 °C with mouse monoclonal anti-T7; blot with anti-GFP (Fig. 1c,d).

A further experiment has as its target T4, T7-RILP-L2 (mouse) (UniProt Q99LE1).
T4 sequence: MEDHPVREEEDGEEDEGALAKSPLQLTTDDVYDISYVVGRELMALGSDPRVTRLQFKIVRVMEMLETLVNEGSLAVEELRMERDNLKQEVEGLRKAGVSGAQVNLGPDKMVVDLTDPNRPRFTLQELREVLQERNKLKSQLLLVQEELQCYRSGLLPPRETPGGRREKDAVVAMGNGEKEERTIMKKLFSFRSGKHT
Described as above.

For another experiment, the target named is T5, T7-RILP (mouse) (UniProt Q5ND29).
T5 sequence: T1 sequence
The experiment is described as above.

A further experiment deals with T6, GST-RILP-L1 (mouse) (UniProt Q9JJC6).
T6 sequence: T3 sequence
As to the kind of experiment: pull-down; GST-RILP, GST-RILP-L1 or GST-RILP-L2 on glutathione agarose beads incubated with RBL cell lysates (GFP fusions; Rab12), 18 h at 4 °C, 0.5 mM GTPγS (Supplementary figure S2); only the target purified.

Another experiment deals with T7, GST-RILP-L2 (mouse) (UniProt Q99LE1).
T7 sequence: T4 sequence
The experiment is described as above.

The target of experiment [2] is T8, RILP-L2 (yeast two-hybrid fusions) (mouse) (UniProt Q99LE1).
T8 sequence: T4 sequence
As to the kind of experiment: two-hybrid; yeast with pGAD-C1 and pGBD-C1 constructs of RILP, RILP-L1 or RILP-L2; growth at 30 °C on SC-AHLW selection medium for one week (Supplementary figure S1).

The target of a further experiment is T9, GFP-RILP-L2 (mouse) (UniProt Q99LE1).
T9 sequence: T4 sequence
In words: co-IP; RBL cells co-transfected with pEGFP and pEF-T7 constructs; lysate (500 μg, buffer A: 50 mM Hepes pH 7.4, 250 mM NaCl, 1 mM MgCl2, 1% Triton X-100) immunoprecipitated overnight at 4 °C with rabbit polyclonal anti-GFP; blot with anti-T7 (Fig. 1a,b).

A further experiment has as its target T10, GFP-RILP-L1 (mouse) (UniProt Q9JJC6).
T10 sequence: T3 sequence
Described as above.

Experiment [3] has as its target T2, GST-RILP (mouse). As to the kind of experiment: pull-down; 5 μg GST-RILP on glutathione agarose beads, 4 h at 4 °C with vehicle (2 or 4% DMSO) or 200 μM peptide 1, peptide 2 or both, then 18 h with RBL cell lysate (500 μg), 0.5 mM GTPγS; blot anti-Rab12; only the target purified.

These are yes or no findings as the source states them, for the method shown. For part of these data: Binding seen in cells or lysates may run through a third protein. Some entries that bind do so weakly or less than the wild type. Where a sequence is shown, tags or fusion partners need not be part of it.

B1: T7-RILP (protein, UniProt Q5ND29 1-369)
chain: T1 sequence
Take B1: in the experiment with GFP-RILP (mouse), the binding result is “binds”.

B2: GFP-RILP (protein, UniProt Q5ND29 1-369)
chain: T1 sequence
As for B2, the binding entry with GST-RILP (mouse) [1] was “binds”; with T7-RILP-L1 (mouse) it was “no binding”; with T7-RILP-L2 (mouse), “no binding”; in the experiment with T7-RILP (mouse), “binds”.

B3: GFP-RILP-L2 (protein, UniProt Q99LE1 1-197)
chain: T4 sequence
Regarding B3, the binding entry is “no binding” with GST-RILP-L1 (mouse), “no binding” in the experiment with GST-RILP (mouse) [1], “binds” with GST-RILP-L2 (mouse) and “binds” in the experiment with T7-RILP-L2 (mouse).

B4: RILP-L2 (yeast two-hybrid fusions) (protein, UniProt Q99LE1 1-197)
chain: T4 sequence
With B4, the binding entry in experiment [2] is “binds”.

B5: T7-RILP-L2 (protein, UniProt Q99LE1 1-197)
chain: T4 sequence
In the case of B5, the results for the binding entry with GFP-RILP (mouse), with GFP-RILP-L2 (mouse) and with GFP-RILP-L1 (mouse) were “no binding”, “binds” and “no binding”, respectively.

B6: T7-RILP-L1 (protein, UniProt Q9JJC6 1-406)
chain: T3 sequence
For the molecule B6, in the experiment with GFP-RILP (mouse), the binding entry was “no binding”.

B7: RILP-L1 (yeast two-hybrid fusions) (protein, UniProt Q9JJC6 1-406)
chain: T3 sequence
With B7, the binding entry in experiment [2] is “no binding”.

B8: GFP-RILP-L1 (protein, UniProt Q9JJC6 1-406)
chain: T3 sequence
In the case of B8, the binding entry with GST-RILP (mouse) [1] and in the experiment with T7-RILP-L2 (mouse) was “no binding” throughout.
As for EACKSTVGVDFKIKT [peptide 1 (Rab12 amino acids 68 to 82)], in the experiment with GST-RILP (mouse) [3], the binding entry is on record as “binds”.

B9: Rab12 (endogenous, RBL cell lysate) (protein, UniProt P35284 1-291)
chain: MLLPLLRRSCFPSSTPGGGGSGGGAERVEGARGPGARGRRPEREPYACMDPSAALHRRPAGGGLGAVSPALSGGQARRRKQPPRPADFKLQVIIIGSRGVGKTSLMERFTDDTFCEACKSTVGVDFKIKTVELRGKKIRLQIWDTAGQERFNSITSAYYRSAKGIILVYDITKKETFDDLPKWMKMIDKYASEDAELLLVGNKLDCETDREISRQQGEKFAQQITGMRFCEASAKDNFNVDEIFLKLVDDILKKMPLDVLRSELSNSILSLQPEPEIPPELPPPRPHVRCC
On to B9, for which the binding entry with GST-RILP-L1 (mouse) and with GST-RILP (mouse) [3] was “binds” in each case.
Turning to ERFNSITSAYYRSAK [peptide 2 (Rab12 amino acids 101 to 115)], in the experiment with GST-RILP (mouse) [3], the binding entry was “binds”.

The record behind these values is publication PMC8119438.
